# Measurements: the supplement of paper PMC7238544
# Where a name gives a salt, the structure may show the parent alone. ± gives the standard deviation of the averaged measurements. The list shows a part of the results.
# Assays:
# Details in all cases: priming compound concentration 100 µM
# [1] = tested on: hAMSC donor 1; assay: Hoechst total cell count ratio vs vehicle control; higher = more cells (less toxicity)
# [2] = tested on: hAMSC donor 2; assay: as above
# [3] = tested on: hAMSC donor 1; assay: transgenic luciferase activity (RLU/mg protein) fold change vs vehicle control (ratio); higher = more transgene expression
# [4] = tested on: hAMSC donor 2; assay: as above
# [5] = tested on: hAMSC donor 1; assay: transfection efficiency (EGFP+ cells / Hoechst count) fold change vs vehicle control (ratio); hAMSC are human adipose-derived mesenchymal stem cells given an EGFP-luciferase plasmid by lipofection; higher = enhanced transfection
# [6] = tested on: hAMSC donor 2; assay: as above
# 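Wherever Hoechst total cell count ratio vs vehicle control is given: compound added 30 min before Lipofectamine 3000 lipoplex delivery, triplicate-well means expressed against DMSO vehicle control wells of the same 96-well plate.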
# 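Wherever transfection efficiency (EGFP+ cells / Hoechst count) fold change vs vehicle control is given: compounds added 30 min before Lipofectamine 3000 lipoplex transfection, triplicate means relative to DMSO vehicle wells on the same plate, luciferase RLU normalized to BCA total protein.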
# 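Wherever transgenic luciferase activity (RLU/mg protein) fold change vs vehicle control is given: compounds in DMSO added 30 min before Lipofectamine 3000 transfection of pEGFP-Luc in 96-well plates, values are means of triplicate wells over DMSO vehicle wells on the same plate.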
SMILES,Hoechst total cell count ratio [1],Hoechst total cell count ratio [2],transgenic luciferase activity [3],transgenic luciferase activity [4],transfection efficiency [5],transfection efficiency [6]
CCCCC1=NC2(CCCC2)C(=O)N1Cc1ccc(-c2ccccc2-c2nnn[nH]2)cc1 [Irbesartan],1.57 ± 0.23,1.85 ± 0.43,16.1 ± 3.5,1.13 ± 0.21,1.19 ± 0.13,1.35 ± 0.055
CC=CC(=O)N(CC)c1ccccc1C [Crotamiton],0.803 ± 0.17,0.748 ± 0.22,0.777 ± 0.27,0.83 ± 0.24,1.58 ± 0.15,1.06 ± 0.17
CC(C)c1ccc2oc3nc(N)c(C(=O)O)cc3c(=O)c2c1 [Amlexanox],1.54 ± 0.084,1.12 ± 0.068,2.99 ± 1.9,3.47 ± 0.78,1.31 ± 0.31,1.59 ± 0.19
CN(C)CCN(Cc1ccccc1)c1ccccn1 [Tripelennamine hydrochloride],1.18 ± 0.14,1.15 ± 0.11,0.487 ± 0.2,0.503 ± 0.059,1.23 ± 0.11,0.855 ± 0.17
Cc1c(OCC(F)(F)F)ccnc1C[S+]([O-])c1nc2ccccc2[nH]1 (stereo not drawn) [Lansoprazole],1.79 ± 0.27,1.17 ± 0.038,2.02 ± 0.86,1.58 ± 0.24,1.03 ± 0.2,0.734 ± 0.051
COc1cc2c(cc1OC)C(=O)C(CC1CCN(Cc3ccccc3)CC1)C2 (stereo not drawn) [Donepezil hydrochloride],1.02 ± 0.07,1.14 ± 0.12,0.26 ± 0.14,0.699 ± 0.23,0.589 ± 0.06,0.717 ± 0.1
C[C@@H]1C[C@H]2[C@@H]3CCC4=CC(=O)C=C[C@]4(C)[C@@]3(F)[C@@H](O)C[C@]2(C)[C@H]1C(=O)CO [Desoximetasone],1.4 ± 0.038,0.976 ± 0.094,7.48 ± 0.26,6.09 ± 0.76,2.19 ± 0.39,1.85 ± 0.23
COc1cc(CNC(=O)CCCC/C=C\C(C)C)ccc1O [Zucapsaicin],0.845 ± 0.11,1.55 ± 0.81,0.571 ± 0.3,0.62 ± 0.26,1.09 ± 0.33,0.621 ± 0.1
C#C[C@]1(O)CC[C@H]2[C@@H]3CCc4cc(O)ccc4[C@H]3CC[C@@]21C [Ethynylestradiol],1.09 ± 0.011,1.1 ± 0.16,1.08 ± 0.28,0.624 ± 0.15,1.07 ± 0.34,0.784 ± 0.21
CCOC(=O)C1=C(C)NC(C)=C(C(=O)OCC)C1c1ccccc1/C=C/C(=O)OC(C)(C)C [Lacidipine],0.207 ± 0.049,0.13 ± 0.062,0.00207 ± 0.0018,0.000389 ± 5.9e-05,1.76 ± 2,0.818 ± 0.87
CN(C)[C@@H]1C(O)=C(C(N)=O)C(=O)[C@@]2(O)C(O)=C3C(=O)c4c(O)ccc(Cl)c4[C@@H](O)[C@H]3C[C@@H]12 [Demeclocycline],1.74 ± 0.087,1.94 ± 0.21,0.119 ± 0.044,0.498 ± 0.26,0.212 ± 0.078,0.403 ± 0.068
COCCCOc1ccnc(C[S+]([O-])c2nc3ccccc3[nH]2)c1C (stereo not drawn) [Rabeprazole],1.22 ± 0.73,1.15 ± 0.23,3.15 ± 3.6,1.18 ± 0.42,1.01 ± 0.25,0.646 ± 0.12
O=C(O)COCCN1CCN(C(c2ccccc2)c2ccc(Cl)cc2)CC1 (stereo not drawn) [Cetirizine],1.14 ± 0.13,1.38 ± 0.19,0.261 ± 0.23,0.767 ± 0.066,1.22 ± 0.16,0.81 ± 0.058
NC(=O)OCC(COC(N)=O)c1ccccc1 [Felbamate],1.24 ± 0.072,1.1 ± 0.26,0.812 ± 0.39,0.729 ± 0.065,0.813 ± 0.14,0.895 ± 0.14
CCOC(=O)[C@@]1(CCCCCCOc2ccc(Cl)cc2)CO1 [Etomoxir],1.39 ± 0.22,2.28 ± 0.063,0.675 ± 0.33,0.161 ± 0.12,0.776 ± 0.18,0.588 ± 0.018
Cc1nc2n(c(=O)c1CCN1CCC(c3noc4cc(F)ccc34)CC1)CCCC2 [Risperidone],1.72 ± 0.12,1.64 ± 0.24,0.452 ± 0.12,1.01 ± 0.36,0.596 ± 0.21,0.626 ± 0.041
CC(=O)OCC(=O)[C@@]12OC3(CCCC3)O[C@@H]1C[C@H]1[C@@H]3CCC4=CC(=O)C=C[C@]4(C)[C@@]3(F)[C@@H](O)C[C@@]12C [Amcinonide],1.02 ± 0.017,1.19 ± 0.12,16.9 ± 3.2,4.17 ± 0.95,1.7 ± 0.48,2.05 ± 0.061
CC(=O)OCC(=O)[C@@]1(O)CC[C@H]2[C@@H]3CCC4=CC(=O)CC[C@]4(C)[C@H]3[C@@H](O)C[C@@]21C [Cortisol 21-acetate],1.3 ± 0.18,1.19 ± 0.31,7.16 ± 0.35,3.89 ± 0.89,1.8 ± 0.27,1.78 ± 0.47
CC(COc1ccccc1Cc1ccccc1)N1CCCCC1 (stereo not drawn) [Benproperine phosphate],0.9997 ± 0.0084,0.597 ± 0.25,4.45 ± 0.31,1.45 ± 0.34,1.61 ± 0.69,1.28 ± 0.37
CC(C)(C(=O)O)c1ccc(C(O)CCCN2CCC(C(O)(c3ccccc3)c3ccccc3)CC2)cc1 (stereo not drawn) [Fexofenadine hydrochloride],1.11 ± 0.025,1.69 ± 0.35,0.711 ± 0.66,0.831 ± 0.079,0.992 ± 0.17,0.76 ± 0.085
Cc1cnc(NC(=O)C2=C(O)c3ccccc3S(=O)(=O)N2C)s1 [Meloxicam],1.12 ± 0.04,1.5 ± 0.028,0.375 ± 0.13,0.829 ± 0.17,0.952 ± 0.22,0.745 ± 0.12
NC12CC3CC(CC(C3)C1)C2 [Symmetrel],1.42 ± 0.1,1.26 ± 0.4,0.694 ± 0.42,0.463 ± 0.17,0.787 ± 0.15,1.23 ± 0.12
Cc1cn([C@H]2C=C[C@@H](CO)O2)c(=O)[nH]c1=O [Stavudine],1.53 ± 0.16,0.774 ± 0.16,0.743 ± 0.24,0.868 ± 0.28,0.878 ± 0.16,1.19 ± 0.16
CC1=C(CC(=O)O)c2cc(F)ccc2/C1=C\c1ccc([S+](C)[O-])cc1 (stereo not drawn) [Sulindac],1.58 ± 0.095,1.54 ± 0.032,0.595 ± 0.42,0.576 ± 0.32,0.694 ± 0.14,0.682 ± 0.26

SMILES,Hoechst total cell count ratio [1],Hoechst total cell count ratio [2],transgenic luciferase activity [3],transgenic luciferase activity [4],transfection efficiency [5],transfection efficiency [6]
NS(=O)(=O)c1cc2c(cc1Cl)N=CNS2(=O)=O [Chlorothiazide],1.36 ± 0.17,1.08 ± 0.03,0.92 ± 0.6,1.01 ± 0.72,1.2 ± 0.08,1.2 ± 0.22
CCCSc1ccc2[nH]c(NC(=O)OC)nc2c1 [Albendazole],0.538 ± 0.048,1.17 ± 0.15,2 ± 2.8,1.03 ± 0.21,1.92 ± 0.51,0.868 ± 0.14
CO[C@@]1(NC(=O)Cc2cccs2)C(=O)N2C(C(=O)O)=C(COC(N)=O)CS[C@@H]21 [Cefoxitin sodium],1.22 ± 0.061,1.05 ± 0.27,0.874 ± 0.53,0.648 ± 0.14,0.705 ± 0.32,1.78 ± 0.38
Cc1ccc(S(=O)(=O)NC(=O)NN2CCCCCC2)cc1 [Tolazamide],1.58 ± 0.15,1.14 ± 0.076,0.791 ± 0.22,1.19 ± 0.26,1.2 ± 0.17,1.05 ± 0.19
CN1[C@@H](CC(=O)c2ccccc2)CCC[C@H]1C[C@H](O)c1ccccc1 [Lobeline hydrochloride],1.38 ± 0.092,1.55 ± 0.54,0.722 ± 0.16,0.482 ± 0.15,0.888 ± 0.35,0.729 ± 0.18
Nc1ccn([C@H]2CC[C@@H](CO)O2)c(=O)n1 [Zalcitabine],1.08 ± 0.086,0.919 ± 0.2,1.39 ± 0.08,1.09 ± 0.2,0.937 ± 0.48,1.39 ± 0.22
O=C1NC(=O)C(c2ccccc2)(c2ccccc2)N1 [Dilantin],0.894 ± 0.2,1.07 ± 0.23,0.706 ± 0.18,0.871 ± 0.14,1.32 ± 0.49,1 ± 0.049
Nc1ccc2cn[nH]c2c1 [6-Aminoindazole],1.44 ± 0.37,1.08 ± 0.093,1.34 ± 1.1,1.28 ± 0.17,0.682 ± 0.23,0.98 ± 0.054
N=C(N)NC(=O)c1nc(Cl)c(N)nc1N [Amiloride hydrochloride hydrate],1.61 ± 0.21,1.07 ± 0.15,1.14 ± 0.44,0.64 ± 0.085,1.19 ± 0.37,1.27 ± 0.13
CCCN[C@H]1CCc2nc(N)sc2C1 [Pramipexole],1.31 ± 0.03,1.2 ± 0.12,0.435 ± 0.44,0.646 ± 0.2,0.943 ± 0.079,0.94 ± 0.18
CN1CCC(=C2c3ccccc3CC(=O)c3sccc32)CC1 [Ketotifen fumarate],1.2 ± 0.15,1 ± 0.099,0.59 ± 0.2,0.343 ± 0.015,1.51 ± 0.12,0.867 ± 0.027
CN(C)CCC=C1c2ccccc2COc2ccccc21 [Doxepin hydrochloride],0.834 ± 0.01,1.07 ± 0.2,0.601 ± 0.18,0.514 ± 0.054,1.57 ± 0.35,0.867 ± 0.17
CN1CCC(=C2c3ccccc3CCc3sccc32)CC1 [Pizotyline maleate],0.164 ± 0.077,0.0817 ± 0.014,0.00986 ± 0.011,0.0303 ± 0.017,0.367 ± 0.13,0.369 ± 0.1
CCCc1cc(=O)[nH]c(=S)[nH]1 [Propylthiouracil],0.946 ± 0.06,1.17 ± 0.085,0.789 ± 0.96,0.337 ± 0.061,0.97 ± 0.12,1.13 ± 0.1
CN1CCCCC1CCN1c2ccccc2Sc2ccc([S+](C)[O-])cc21 (stereo not drawn) [Mesoridazine besylate],0.953 ± 0.033,1.07 ± 0.11,1.9 ± 0.48,0.377 ± 0.093,1.81 ± 0.41,0.885 ± 0.18
Clc1ccc(COC(Cn2ccnc2)c2ccc(Cl)cc2Cl)cc1 (stereo not drawn) [Econazole nitrate],0.203 ± 0.13,0.122 ± 0.029,0.00838 ± 0.0016,0.00142 ± 0.0011,2.24 ± 0.28,0.112 ± 0.19
CN(C)[C@@H]1C(O)=C(C(=O)NCN2CCCC2)C(=O)[C@@]2(O)C(O)=C3C(=O)c4c(O)cccc4[C@@](C)(O)[C@H]3C[C@@H]12 [Rolitetracycline],2.04 ± 0.24,1.12 ± 0.075,0.718 ± 0.15,0.302 ± 0.082,0.277 ± 0.061,0.291 ± 0.19
O=C1C(CC[S+]([O-])c2ccccc2)C(=O)N(c2ccccc2)N1c1ccccc1 (stereo not drawn) [Sulfinpyrazone],1.06 ± 0.078,1.16 ± 0.089,1.08 ± 0.27,0.539 ± 0.23,1.46 ± 0.43,0.964 ± 0.037
CC(N)C12CC3CC(CC(C3)C1)C2 (stereo not drawn) [Flumadine hydrochloride],0.875 ± 0.085,1.33 ± 0.058,0.87 ± 0.22,2.28 ± 0.28,1.3 ± 0.66,1.49 ± 0.22
CC(CN1c2ccccc2Sc2ccccc21)N(C)C (stereo not drawn) [Promethazine hydrochloride],0.865 ± 0.062,0.301 ± 0.16,0.212 ± 0.2,0.301 ± 0.08,0.192 ± 0.084,0.593 ± 0.21
O=C1c2c(O)cc(O)cc2O[C@H](c2ccc(O)c(O)c2)[C@H]1O [Taxifolin-(+)],1.29 ± 0.11,0.917 ± 0.086,2.67 ± 0.73,0.212 ± 0.07,1.46 ± 0.6,1 ± 0.22
CCCCc1nc(Cl)c(CO)n1Cc1ccc(-c2ccccc2-c2nnn[nH]2)cc1 [Losartan potassium],1.03 ± 0.057,1.16 ± 0.13,3.01 ± 1.1,0.923 ± 0.12,1.54 ± 0.24,1.11 ± 0.14
CN(C)CCc1c[nH]c2ccc(Cn3cncn3)cc12 [Rizatriptan benzoate],1.02 ± 0.11,1.39 ± 0.31,1.44 ± 0.44,0.716 ± 0.26,0.987 ± 0.38,0.862 ± 0.18
Cc1cccc(C)c1OCC(C)N (stereo not drawn) [Mexiletine hydrochloride],1.09 ± 0.012,1.21 ± 0.1,3.54 ± 0.3,1.48 ± 0.49,1.36 ± 0.73,1.37 ± 0.32
